The RNAGym collection of RNA variant scans (doi:10.7554/elife.90254)
The source gives no read counts; variants with many changes may rest on few reads.

B1: LINE1-mini (parent)
chain: GGCAGAGCUCAACACAGCGUGGCAAAGUGGCUGUGGCUAGACUGCC

Variants of: B1
Test: self-cleavage, relative activity (ratio to wild type); higher = more cleavage; in vitro, sequencing; the parent is a self-cleaving ribozyme

| Variant | self-cleavage |
| --- | --- |
| GGCAGAGCUCAACACAGCGUGCCAAAGUGGAUGUGGCUUGACUGCC [G22C C31A A39U] | 0.06 |
| GGCAGAGCUCAACACAGCGUGCCAAAGUGGUUGUUGAUAGACUGCC [G22C C31U G35U C37A] | 0.03 |
| GGCAGAGCUCAACACAGCGUGCCAAAGUGGCUGUGGAUAGACAGCC [G22C C37A U43A] | 0 |
| GGCAGAGCUCAACACAGCGUGCCAAAAUGGCUGUGGCUAGACUGAC [G22C G27A C45A] | 1.22 |
| GGCAGAGCUCAACACAGCGUGCCAAAUAGGGUGUGGCUAGGCUGCC [G22C G27U U28A C31G A41G] | 0.03 |
| GGCAGAGCUCAACACAGCGUGCCAAAUUGGCGGUGGCUAGACUGCC [G22C G27U U32G] | 0.05 |
| GGCAGAGCUCAACACAGCGUGCCAAAGUAGCUGUGGGUAGACUGCC [G22C G29A C37G] | 0 |
| GGCAGAGCUCAACACAGCGUGCCAAAGUCGCUGUGGCUAGACUGGC [G22C G29C C45G] | 0.02 |
| GGCAGAGCUCAACACAGCGUGCCAAAGUCGCUGUGGCAAGACUGCC [G22C G29C U38A] | 0.14 |
| GGCAGAGCUCAACACAGCGUGCCAAAGUUUCUGUGGCUAGACUGCC [G22C G29U G30U] | 0.22 |
| GGCAGAGCUCAACACAGCGUGCCAAAGUGUCUGUGGCUAGGCUGCC [G22C G30U A41G] | 0.33 |
| GGCAGAGCUCAACACAGCGUGCCAAAGUGGCUAUGGUUAGACUGCC [G22C G33A C37U] | 0.03 |
| GGCAGAGCUCAACACAGCGUGCCAAAGUGGCUGUAGCACGACUGCC [G22C G35A U38A A39C] | 0.09 |
| GGCAGAGCUCAACACAGCGUGCCAAAGUGGCUGUGCCUACACUGCC [G22C G36C G40C] | 0.12 |
| GGCAGAGCUCAACACAGCGUGCCAAAGUGGCUGUGUCUAGACUGCA [G22C G36U C46A] | 0.05 |
| GGCAGAGCUCAACACAGCGUGCCAAAGAGGCUGUGGAUAGACUGCC [G22C U28A C37A] | 0.03 |
| GGCAGAGCUCAACACAGCGUGCCAAAGAGGCUGAGGCUAGACUGCC [G22C U28A U34A] | 0.18 |
| GGCAGAGCUCAACACAGCGUGCCAAAGCGGAUGUGGCUUGACAGCC [G22C U28C C31A A39U U43A] | 0.04 |
| GGCAGAGCUCAACACAGCGUGCCAAAGGGGCUGUGGAUAGACUGCC [G22C U28G C37A] | 0.01 |

| Variant | self-cleavage |
| --- | --- |
| GGCAGAGCUCAACACAGCGUGCCAAAGGGGCUGUCGUUAGACUGCG [G22C U28G G35C C37U C46G] | 0.01 |
| GGCAGAGCUCAACACAGCGUGCCAAAGUGGCGGUGGCUAGACUGCA [G22C U32G C46A] | 0.04 |
| GGCAGAGCUCAACACAGCGUGCCAAAGUGGCGGUGGCUAGACUUCC [G22C U32G G44U] | 0.1 |
| GGCAGAGCUCAACACAGCGUGCCAAAGUGGCUGAGGCUAGAUUGCC [G22C U34A C42U] | 0.06 |
| GGCAGAGCUCAACACAGCGUGCCAAAGUGGCUGCGGCUAGACAGAC [G22C U34C U43A C45A] | 0.04 |
| GGCAGAGCUCAACACAGCGUGCCAAAGUGGCUGGGGUUAGAUUGCC [G22C U34G C37U C42U] | 0.03 |
| GGCAGAGCUCAACACAGCGUGCCAAAGUGGCUGGGGCAAGACUGCC [G22C U34G U38A] | 0.18 |
| GGCAGAGCUCAACACAGCGUGCCAAAGUGGCUGUGGCGAGGCUGCC [G22C U38G A41G] | 0.02 |
| GGCAGAGCUCAACACAGCGUGCCAAAGUGGCUGUGGCGAGACCGCC [G22C U38G U43C] | 0 |
| GGCAGAGCUCAACACAGCGUGUCCAAGUGACUGUGGCUAGACUUCC [G22U A24C G30A G44U] | 0.05 |
| GGCAGAGCUCAACACAGCGUGUCGUAGUGGCUGUGGCUAGACUGCC [G22U A24G A25U] | 0.72 |
| GGCAGAGCUCAACACAGCGUGUCGAAGUGGCUGUGGCUAGAAUGCC [G22U A24G C42A] | 0.02 |
| GGCAGAGCUCAACACAGCGUGUCGAAGUGGCGGUGCCUAGACUGUC [G22U A24G U32G G36C C45U] | 0.06 |
| GGCAGAGCUCAACACAGCGUGUCUAAGUGGCUGUGGGUAGUCUGCC [G22U A24U C37G A41U] | 0.04 |
| GGCAGAGCUCAACACAGCGUGUCUAAGUGGCUGUGGUUAGACUGCC [G22U A24U C37U] | 0.02 |
| GGCAGAGCUCAACACAGCGUGUCAGGGUGACUGUGGCUAGACUGCC [G22U A25G A26G G30A] | 0.14 |
| GGCAGAGCUCAACACAGCGUGUCAACGUGGCUGUGGCUAGUCUGCC [G22U A26C A41U] | 0.47 |
| GGCAGAGCUCAACACAGCGUGUCAACGUGGCAGUGGCUAGACUGCC [G22U A26C U32A] | 0.19 |
| GGCAGAGCUCAACACAGCGUGUCAAGGUGGCUGUGGCUAGAUUGCC [G22U A26G C42U] | 0.54 |

| Variant | self-cleavage |
| --- | --- |
| GGCAGAGCUCAACACAGCGUGUCAAGGUGGCUGUCGCUAGACUGCC [G22U A26G G35C] | 0.18 |
| GGCAGAGCUCAACACAGCGUGUCAAGGUGGCUGUGGCUAUACGGCC [G22U A26G G40U U43G] | 0.01 |
| GGCAGAGCUCAACACAGCGUGUCAAUGUGGCUUUGCCUAGACUGCC [G22U A26U G33U G36C] | 0.02 |
| GGCAGAGCUCAACACAGCGUGUAAAAGUGGCUGUGGCUGGACUGCC [G22U C23A A39G] | 0.06 |
| GGCAGAGCUCAACACAGCGUGUAAAAGUGGUUGUGGCUAGACUGCC [G22U C23A C31U] | 0.64 |
| GGCAGAGCUCAACACAGCGUGUAAAAGUUGCUAUGGCUAGACUGCC [G22U C23A G29U G33A] | 0.69 |
| GGCAGAGCUCAACACAGCGUGUAAAAGUGGCUUUGGCUAGACUGCC [G22U C23A G33U] | 0.51 |
| GGCAGAGCUCAACACAGCGUGUAAAAGUGGCUGAGGCUAGAUUGCC [G22U C23A U34A C42U] | 0.13 |
| GGCAGAGCUCAACACAGCGUGUGAGAGUGGCUGUGGCUAGACUGCC [G22U C23G A25G] | 0.64 |
| GGCAGAGCUCAACACAGCGUGUGAAAAUGGCGGUGGCUAGACUGCC [G22U C23G G27A U32G] | 0.62 |
| GGCAGAGCUCAACACAGCGUGUGAAAGUGGCUGUCGCUAGAGUGCC [G22U C23G G35C C42G] | 0.02 |
| GGCAGAGCUCAACACAGCGUGUCAAAGUGGAUAUGGCUAGACUGCC [G22U C31A G33A] | 0.06 |
| GGCAGAGCUCAACACAGCGUGUCAAAGUGGGUCUGGCUAGACUGCC [G22U C31G G33C] | 0.07 |
| GGCAGAGCUCAACACAGCGUGUCAAAGUGGCUGUGGGUAGACUGUC [G22U C37G C45U] | 0.04 |
| GGCAGAGCUCAACACAGCGUGUCAAAGUGGCUGUGGUUAGACUGCA [G22U C37U C46A] | 0.06 |
| GGCAGAGCUCAACACAGCGUGUCAAAGUGGCUGUGGCUAGAACGAC [G22U C42A U43C C45A] | 0.03 |
| GGCAGAGCUCAACACAGCGUGUCAAAGUGGCUGUGGCUAGAGUGAC [G22U C42G C45A] | 0.04 |
| GGCAGAGCUCAACACAGCGUGUCAAAAUGGCUGUGGCUAGGCUGCC [G22U G27A A41G] | 0.24 |
